Measured values: the supplement of paper PMC4604168 (melanoma cell lines)
This is one part of the list. Many values rest on one well or one pass, so single values are uncertain.

Key:
Assay in all cases: cell count relative to DMSO control; melanoma cells; higher = more viable cells
Conditions in all cases: library dose: standard library concentration; 72 h
G361 = test system: G361
IPC-298 = test system: IPC-298
IST-MEL1 = test system: IST-MEL1
LB2518-MEL = test system: LB2518-MEL
LOXIMVI = test system: LOXIMVI
MEL-HO = test system: MEL-HO
MZ2-MEL = test system: MZ2-MEL
MeWo = test system: MeWo
RPMI7951 = test system: RPMI7951
RVH-421 = test system: RVH-421
SkMel28 = test system: SkMel28
SkMel2 = test system: SkMel2
SkMel30 = test system: SkMel30
SkMel5 = test system: SkMel5
UACC257 = test system: UACC257
UACC62 = test system: UACC62
WM115 = test system: WM115
WM1716 = test system: WM1716
WM3526 = test system: WM3526
WM1745 = test system: WM1745
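Also: cells treated in 1,536-well plates, then fixed and DAPI-stained, with nuclei counted from automated high-throughput microscope images.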

Structure (SMILES) | cell count (G361) [%] | cell count (IPC-298) [%] | cell count (IST-MEL1) [%] | cell count (LB2518-MEL) [%] | cell count (LOXIMVI) [%] | cell count (MEL-HO) [%] | cell count (MZ2-MEL) [%] | cell count (MeWo) [%] | cell count (RPMI7951) [%] | cell count (RVH-421) [%] | cell count (SkMel28) [%] | cell count (SkMel2) [%] | cell count (SkMel30) [%] | cell count (SkMel5) [%] | cell count (UACC257) [%] | cell count (UACC62) [%] | cell count (WM115) [%] | cell count (WM1716) [%] | cell count (WM3526) [%] | cell count (WM1745) [%]
NC(=O)c1ccc(N(C(N)=O)c2c(F)cccc2F)nc1-c1ccc(F)cc1F + O=S(=O)(c1ccccc1)N(CC(F)(F)F)c1ccc(C(O)(C(F)(F)F)C(F)(F)F)cc1 [T0901317] (first compound 2 µM, partner dose 7 µM) | 79.7 | 84.5 | 84.8 | 99.4 | 104 | 99.3 | 92.6 | 68.1 | 88.7 | 121 | 75.8 | 97 | 99.1 | 70.9 | 78 | 71.6 | 91.1 | 93.3 | 93.3 | –
NC(=O)c1ccc(N(C(N)=O)c2c(F)cccc2F)nc1-c1ccc(F)cc1F + O=C(O)[C@@H]1[O][Sb](=[O])([O][Sb]2(=[O])[O][C@H]([C@H](O)CO)[C@H](O)[C@H](C(=O)O)[O]2)[O][C@H]([C@H](O)CO)[C@@H]1O [stibogluconate] (first compound 2 µM, partner dose 10 µM) | 109 | 83.7 | 110 | 91.3 | 102 | 89.4 | 108 | 96.8 | 113 | 82.7 | 106 | 94.2 | 122 | 93.2 | 124 | 79.6 | 102 | 105 | 93.2 | 91.5
NC(=O)c1ccc(N(C(N)=O)c2c(F)cccc2F)nc1-c1ccc(F)cc1F + NCC(=O)Nc1ccc(-n2nc(C(F)(F)F)cc2-c2ccc3c(ccc4ccccc43)c2)cc1 [OSU03012] (first compound 2 µM, partner dose 5 µM) | 81 | 65.4 | 85.7 | 82.7 | 90.4 | 87.3 | 109 | 79.1 | 103 | 88.8 | 21.8 | 45.5 | 31.7 | 55.4 | 74.4 | 62.2 | 75.4 | 93.9 | 57.4 | 67.3
NC(=O)c1ccc(N(C(N)=O)c2c(F)cccc2F)nc1-c1ccc(F)cc1F + O=c1cc(-c2cccc3c2Sc2ccccc2S3)oc(N2CCOCC2)c1 [KU55933] (first compound 2 µM, partner dose 5 µM) | 57.6 | 90.7 | 97.3 | 117 | 88.3 | 84.3 | 91.2 | 79.4 | 85.6 | 78.1 | 70.8 | 84.6 | 105 | 67.3 | 86.6 | 77.5 | 96.3 | 103 | 88.8 | –
CN(NC(=O)CC(=O)NN(C)C(=S)c1ccccc1)C(=S)c1ccccc1 + COc1cc2c(Oc3ccc4[nH]c(C)cc4c3F)ncnc2cc1OCCCN1CCCC1 [cediranib] (first compound 0.03 µM, partner dose 2 µM) | 34.3 | 85.4 | 30.3 | 32.1 | 62.2 | 88.6 | 102 | 16.9 | 58.7 | 50.8 | 37.8 | 80.7 | 99 | 43.4 | 108 | 47 | 17.7 | 91.7 | 81.7 | 31
NC(=O)c1ccc(N(C(N)=O)c2c(F)cccc2F)nc1-c1ccc(F)cc1F + COc1cc(N2CCC(N3CCN(C)CC3)CC2)ccc1Nc1ncc(Cl)c(Nc2ccccc2S(=O)(=O)C(C)C)n1 [NVP-TAE684] (first compound 2 µM, partner dose 0.4 µM) | 72.8 | 93.3 | 97.2 | 78.9 | 87.1 | 93.4 | 94.1 | 60.1 | 101 | 283 | 74.4 | 71.9 | 139 | 62.5 | 84.9 | 79.6 | 74.3 | 97.7 | 82.1 | –
NC(=O)c1ccc(N(C(N)=O)c2c(F)cccc2F)nc1-c1ccc(F)cc1F + CCN(CC)CCCCNc1ncc2cc(-c3cc(OC)cc(OC)c3)c(NC(=O)NC(C)(C)C)nc2n1 [PD173074] (first compound 2 µM, partner dose 0.5 µM) | 117 | 123 | 103 | 113 | 111 | 118 | 133 | 99.3 | 133 | 103 | 159 | 143 | 110 | 133 | 118 | 105 | 121 | 120 | 123 | –
NC(=O)c1ccc(N(C(N)=O)c2c(F)cccc2F)nc1-c1ccc(F)cc1F + O=C1NC(=O)/C(=C/c2ccc(-c3ccc(F)cc3O)o2)S1 [AS252424] (first compound 2 µM, partner dose 5 µM) | 81.7 | 87.3 | 93.1 | 82.3 | 153 | 83.4 | 87.8 | 87.1 | 81.2 | 93.7 | 81.5 | 94.5 | 94 | 71.6 | 89.4 | 131 | 102 | 118 | 101 | –
CCc1ccc(CCOc2ccc(CC3SC(=O)NC3=O)cc2)nc1 (centres undefined) [pioglitazone] + CC(C)CCN1c2nc(Nc3cc(F)c(O)c(F)c3)ncc2N(C)C(=O)C1C [BID1870] (first compound 10 µM, partner dose 1 µM) | 67.4 | 77.7 | 84.4 | 70 | 98.3 | 69.8 | 91.1 | 72.9 | 61.6 | 83.5 | 50.9 | 79.2 | 86.2 | 72.1 | 88.6 | 92.2 | 110 | 74 | 78.9 | 76.2
NC(=O)c1ccc(N(C(N)=O)c2c(F)cccc2F)nc1-c1ccc(F)cc1F + COC(=O)c1sccc1S(=O)(=O)Nc1ccc(Nc2ccccc2)cc1OC [GSK0660] (first compound 2 µM, partner dose 5 µM) | 87.2 | 85.2 | 96.6 | 121 | 146 | 100 | 72.3 | 105 | 108 | 104 | 86.2 | 89.9 | 108 | 75.7 | 96.1 | 72.4 | 105 | 114 | 85 | –
CC(C)(C)c1cnc(CSc2cnc(NC(=O)C3CCNCC3)s2)o1 + NC(=O)Nc1cc(-c2cccc(F)c2)sc1C(=O)N[C@H]1CCCNC1 [AZD7762] (first compound 0.05 µM, partner dose 0.1 µM) | 93.1 | 96.3 | 86.3 | 76.9 | 55.5 | 86.7 | 89.8 | 66.7 | 34.4 | 104 | 43.4 | 84.5 | 90.8 | 67 | 99.1 | 60.5 | 76.3 | 65.9 | 60 | 69
CCCCCCCCc1ccc(CCC(N)(CO)CO)cc1 [fingolimod] + CCN(CC)CCCCNc1ncc2cc(-c3cc(OC)cc(OC)c3)c(NC(=O)NC(C)(C)C)nc2n1 [PD173074] (first compound 10 µM, partner dose 0.5 µM) | 42.5 | 63.5 | 18.5 | 24.3 | 76 | 32.3 | 66.5 | 49.8 | 18.6 | 25.5 | 34.6 | 28.2 | 40.3 | 98.3 | 85.7 | 43.2 | 24 | 45.8 | 61.5 | –
NC(=O)c1ccc(N(C(N)=O)c2c(F)cccc2F)nc1-c1ccc(F)cc1F + C[C@@H]1CCN(C(=O)CC#N)C[C@@H]1N(C)c1ncnc2[nH]ccc12 [CP690550] (first compound 2 µM, partner dose 5 µM) | 101 | 118 | 93.2 | 111 | 114 | 107 | 110 | 89.5 | 104 | 127 | 99.6 | 110 | 103 | 106 | 90.8 | 81.1 | 92.2 | 117 | 93.5 | 140
NC(=O)c1ccc(N(C(N)=O)c2c(F)cccc2F)nc1-c1ccc(F)cc1F + O=C(Nc1ccccc1)c1cc([N+](=O)[O-])ccc1Cl [GW9662] (first compound 2 µM, partner dose 10 µM) | 67.7 | 97.1 | 87.7 | 81.6 | 54.1 | 87.1 | 77 | 67.7 | 72.8 | 64.8 | 51.7 | 77.3 | 81.4 | 65.5 | 80.1 | 67 | 55.2 | 102 | 63 | –
NC(=O)c1ccc(N(C(N)=O)c2c(F)cccc2F)nc1-c1ccc(F)cc1F + CCCCCCCCCCCC1=C(O)C(=O)C=C(O)C1=O [Embelin] (first compound 2 µM, partner dose 6 µM) | 70.3 | 97.3 | 68.9 | 106 | 119 | 80 | 115 | 93.2 | 78.9 | 70.4 | 94.8 | 93.7 | 92 | 79 | 97.4 | 109 | 94.6 | 67.5 | 98.5 | –
NC(=O)c1ccc(N(C(N)=O)c2c(F)cccc2F)nc1-c1ccc(F)cc1F + COc1ccc(COc2ccc(Cc3cnc(N)nc3N)cc2OC)cc1 [GW2580] (first compound 2 µM, partner dose 5 µM) | 103 | 110 | 105 | 119 | 48.3 | 90.8 | 104 | 83.5 | 77.5 | 79 | 85.9 | 103 | 112 | 91.4 | 91.1 | 90.7 | 99.9 | 104 | 80.3 | –
COc1cc2c(Oc3ccc4[nH]c(C)cc4c3F)ncnc2cc1OCCCN1CCCC1 [cediranib] + COc1cc(N2CCC(N3CCN(C)CC3)CC2)ccc1Nc1ncc(Cl)c(Nc2ccccc2S(=O)(=O)C(C)C)n1 [NVP-TAE684] (first compound 2 µM, partner dose 0.4 µM) | 79.8 | 85.1 | 97.2 | 95.7 | 40 | 96.9 | 85.8 | 58.6 | 51.2 | 75.7 | 76.7 | 63.2 | 93.7 | 55 | 79.9 | 84.4 | 57.7 | 73 | 67.1 | 40.1
CCCCCCCCc1ccc(CCC(N)(CO)CO)cc1 [fingolimod] + Oc1cc(-c2nc(-c3ccccc3)[nH]c2-c2ccncc2)ccc1Cl [L779450] (first compound 10 µM, partner dose 1 µM) | 0.581 | 33.1 | 2.98 | 0.38 | 3.51 | 3.06 | 0.894 | 19.6 | 2.42 | 8.75 | 1.09 | 0.188 | 17.9 | 35.5 | 66.5 | 22.5 | 12.2 | 35.6 | 15.4 | –
